Test results published in publication PMC5700166.
Only a part is listed here, and it is no random draw. The list includes weakly bound sequences.

Assays:
Assay in all cases: protein-binding microarray (PBM)
Conditions in all cases: PBM: ~300 nM protein, 6 mM HEPES pH 7.8, 80 mM KCl, 0.5 mM EDTA, 0.5 mM EGTA, 6% glycerol, 35 ng/ul poly-dIdC, 1% milk, 1 h, room temperature; Ap Aiptasia and Nv Nematostella (sea anemones) / Co Capsaspora / Aq Amphimedon (sponge) / Dm Drosophila / Hu human; RHD is the Rel homology domain; high values mean tight binding; most listed sequences are background and not binding sites; double strand, one strand shown
[1] = biological target: T1, GST-Ap-NF-kB RHD (UniProt A0A913YAJ5)
T1 sequence: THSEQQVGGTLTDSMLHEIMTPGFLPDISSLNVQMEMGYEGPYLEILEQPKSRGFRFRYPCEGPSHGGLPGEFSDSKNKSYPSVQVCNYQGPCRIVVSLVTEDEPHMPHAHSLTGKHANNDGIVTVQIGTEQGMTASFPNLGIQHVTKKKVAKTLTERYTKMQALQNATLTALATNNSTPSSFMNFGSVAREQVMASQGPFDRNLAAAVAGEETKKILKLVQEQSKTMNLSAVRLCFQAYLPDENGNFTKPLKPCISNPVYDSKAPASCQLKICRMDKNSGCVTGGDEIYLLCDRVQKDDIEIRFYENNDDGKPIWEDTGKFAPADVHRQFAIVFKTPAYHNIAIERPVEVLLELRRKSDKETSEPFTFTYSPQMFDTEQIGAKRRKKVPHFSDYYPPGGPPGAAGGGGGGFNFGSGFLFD

[2] = biological target: T2, GST-Nv-NF-kB (Cys allele) (UniProt E5G601)
T2 sequence: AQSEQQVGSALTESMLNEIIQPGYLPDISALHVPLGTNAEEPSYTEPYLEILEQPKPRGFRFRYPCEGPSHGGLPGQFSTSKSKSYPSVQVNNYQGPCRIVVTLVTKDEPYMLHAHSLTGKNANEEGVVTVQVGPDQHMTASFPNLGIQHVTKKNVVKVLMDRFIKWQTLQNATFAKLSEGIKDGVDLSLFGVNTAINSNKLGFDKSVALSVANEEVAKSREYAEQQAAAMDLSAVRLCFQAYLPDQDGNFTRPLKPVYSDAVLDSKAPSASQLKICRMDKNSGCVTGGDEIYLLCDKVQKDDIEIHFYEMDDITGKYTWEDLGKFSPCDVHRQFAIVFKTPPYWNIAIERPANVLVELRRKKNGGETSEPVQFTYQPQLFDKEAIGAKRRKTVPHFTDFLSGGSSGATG

[3] = biological target: T3, GST-Co-NF-kB (UniProt F1ARL5)
T3 sequence: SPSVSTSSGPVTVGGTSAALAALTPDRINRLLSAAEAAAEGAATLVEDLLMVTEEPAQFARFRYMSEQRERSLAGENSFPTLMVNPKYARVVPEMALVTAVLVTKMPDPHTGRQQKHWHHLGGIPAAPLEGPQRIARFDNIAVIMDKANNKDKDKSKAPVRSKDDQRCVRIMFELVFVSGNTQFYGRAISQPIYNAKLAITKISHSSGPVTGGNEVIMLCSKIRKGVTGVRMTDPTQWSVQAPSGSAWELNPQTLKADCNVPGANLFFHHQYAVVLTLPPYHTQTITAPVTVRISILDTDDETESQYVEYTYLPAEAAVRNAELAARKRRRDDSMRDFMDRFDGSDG

[4] = biological target: T4, GST-Dm-Relish (UniProt Q94527)
T4 sequence: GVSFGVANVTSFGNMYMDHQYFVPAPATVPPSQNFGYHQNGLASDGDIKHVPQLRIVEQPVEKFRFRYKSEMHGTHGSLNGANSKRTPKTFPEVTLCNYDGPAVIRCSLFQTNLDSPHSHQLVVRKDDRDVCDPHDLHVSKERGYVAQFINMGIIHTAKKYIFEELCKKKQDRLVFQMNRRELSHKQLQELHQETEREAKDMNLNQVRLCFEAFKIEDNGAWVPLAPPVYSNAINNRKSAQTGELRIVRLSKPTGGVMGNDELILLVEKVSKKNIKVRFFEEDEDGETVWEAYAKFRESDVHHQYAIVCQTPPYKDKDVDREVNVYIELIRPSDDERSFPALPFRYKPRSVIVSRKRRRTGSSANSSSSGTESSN

[5] = biological target: T5, GST-Aq-NF-kB (UniProt A9Y5G7)
T5 sequence: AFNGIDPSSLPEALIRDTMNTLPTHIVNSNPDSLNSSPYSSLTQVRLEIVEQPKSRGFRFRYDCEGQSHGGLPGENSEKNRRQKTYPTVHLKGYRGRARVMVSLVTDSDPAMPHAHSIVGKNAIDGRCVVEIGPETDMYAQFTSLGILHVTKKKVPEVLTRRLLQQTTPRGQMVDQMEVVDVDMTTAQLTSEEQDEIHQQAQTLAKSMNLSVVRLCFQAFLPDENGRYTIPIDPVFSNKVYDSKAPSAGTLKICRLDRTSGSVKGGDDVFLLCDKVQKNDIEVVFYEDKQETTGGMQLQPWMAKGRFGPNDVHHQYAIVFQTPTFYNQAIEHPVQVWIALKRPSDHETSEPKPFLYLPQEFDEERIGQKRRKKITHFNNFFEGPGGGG

Sequence | binding signal [1] | binding signal [2] | binding signal [3] | binding signal [4] | binding signal [5]
CCGATTAACATCATAGATGTGTCTGATGTTAATCGGGTCTTGATTCGCTTGACGCTGCTG | -1.07 z-score | -0.286 z-score | -0.728 z-score | -0.733 z-score | -0.376 z-score
CCGATTAACATCAGCCCGTTCTATGATGTTAATCGGGTCTTGATTCGCTTGACGCTGCTG | 0.153 z-score | 0.361 z-score | -0.202 z-score | -0.509 z-score | -0.085 z-score
CCGATTAACATCAGCTTATCAACTGATGTTAATCGGGTCTTGATTCGCTTGACGCTGCTG | -0.723 z-score | -0.14 z-score | -0.863 z-score | -0.743 z-score | -0.533 z-score
CCGATTAACATCAATGGAATTTCTGATGTTAATCGGGTCTTGATTCGCTTGACGCTGCTG | -0.0503 z-score | 0.259 z-score | -0.447 z-score | 0.515 z-score | 0.75 z-score
CCGATTAACATCAAGCCTCCATATGATGTTAATCGGGTCTTGATTCGCTTGACGCTGCTG | -0.679 z-score | -0.0119 z-score | -0.289 z-score | -0.369 z-score | -0.273 z-score
CCGATTAACATCACGGAATGTACTGATGTTAATCGGGTCTTGATTCGCTTGACGCTGCTG | -0.0219 z-score | -0.525 z-score | 0.104 z-score | 1.8 z-score | 0.462 z-score
CCGATTAACATCAGTTCTCCGGATGATGTTAATCGGGTCTTGATTCGCTTGACGCTGCTG | 0.00854 z-score | -1.43 z-score | -0.538 z-score | -0.882 z-score | -0.381 z-score
CCGATTAACATCAGGGCGTTCAATGATGTTAATCGGGTCTTGATTCGCTTGACGCTGCTG | 0.266 z-score | 0.318 z-score | -0.773 z-score | -0.0928 z-score | -0.131 z-score
CCGATTAACATCAGAAATATTCCTGATGTTAATCGGGTCTTGATTCGCTTGACGCTGCTG | -0.206 z-score | 0.508 z-score | -0.391 z-score | 0.315 z-score | 0.612 z-score
CCGATTAACATCAATCCGGAAAATGATGTTAATCGGGTCTTGATTCGCTTGACGCTGCTG | -0.649 z-score | 0.129 z-score | -0.795 z-score | -0.704 z-score | -0.26 z-score
CCGATTAACATCAGCTGTTGCAATGATGTTAATCGGGTCTTGATTCGCTTGACGCTGCTG | -0.528 z-score | -0.354 z-score | -0.774 z-score | -0.436 z-score | -0.429 z-score
CCGATTAACATCAATTCGTGTAATGATGTTAATCGGGTCTTGATTCGCTTGACGCTGCTG | -0.705 z-score | -0.369 z-score | -0.182 z-score | -0.355 z-score | -0.691 z-score
CCGATTAACATCAGGATTTTACATGATGTTAATCGGGTCTTGATTCGCTTGACGCTGCTG | -0.176 z-score | -0.0838 z-score | -0.256 z-score | 3.35 z-score | 0.547 z-score
CCGATTAACATCAACTCAGTTACTGATGTTAATCGGGTCTTGATTCGCTTGACGCTGCTG | -0.601 z-score | -0.0737 z-score | -0.317 z-score | -0.2 z-score | -0.281 z-score
CCGATTAACATCAATGATCACTCTGATGTTAATCGGGTCTTGATTCGCTTGACGCTGCTG | -0.335 z-score | 0.119 z-score | -0.0997 z-score | 0.162 z-score | -0.185 z-score
CCGATTAACATCAAGACCACTGTTGATGTTAATCGGGTCTTGATTCGCTTGACGCTGCTG | -0.479 z-score | 0.297 z-score | -0.36 z-score | 0.197 z-score | -0.357 z-score
CCGATTAACATCATCCGAAATAATGATGTTAATCGGGTCTTGATTCGCTTGACGCTGCTG | -0.0911 z-score | -0.717 z-score | -0.54 z-score | -0.838 z-score | -0.372 z-score
CCGATTAACATCAAGGCATGCTCTGATGTTAATCGGGTCTTGATTCGCTTGACGCTGCTG | -0.359 z-score | 0.395 z-score | -1.69 z-score | -1.06 z-score | -0.437 z-score
CCGATTAACATCACTGGTTGCTATGATGTTAATCGGGTCTTGATTCGCTTGACGCTGCTG | -0.43 z-score | -0.198 z-score | 0.625 z-score | -0.662 z-score | -0.293 z-score
CCGATTAACATCAATCCCGAGCATGATGTTAATCGGGTCTTGATTCGCTTGACGCTGCTG | 0.416 z-score | 0.303 z-score | 0.878 z-score | 0.231 z-score | 0.674 z-score
CCGATTAACATCACATTGTGATCTGATGTTAATCGGGTCTTGATTCGCTTGACGCTGCTG | -0.871 z-score | -0.382 z-score | -0.746 z-score | -0.109 z-score | -0.536 z-score
CCGATTAACATCAAATTTCCAGATGATGTTAATCGGGTCTTGATTCGCTTGACGCTGCTG | 0.0689 z-score | -0.31 z-score | -0.0373 z-score | 0.276 z-score | 0.633 z-score
CCGATTAACATCACTCAGTACTATGATGTTAATCGGGTCTTGATTCGCTTGACGCTGCTG | -0.394 z-score | -0.216 z-score | 0.123 z-score | 0.0521 z-score | -0.384 z-score
CCGATTAACATCAGCTAAGCATGTGATGTTAATCGGGTCTTGATTCGCTTGACGCTGCTG | -0.941 z-score | -0.418 z-score | -0.732 z-score | -0.328 z-score | -0.213 z-score
CCGATTAACATCAGAAATGACCTTGATGTTAATCGGGTCTTGATTCGCTTGACGCTGCTG | -0.548 z-score | -0.0831 z-score | -0.305 z-score | -0.0329 z-score | -0.0485 z-score
